About 230 (0.21%) of roughly 110,000 compounds showed an effect of 50% or more. Some of the results follow.
What follows are compounds tested against DPAP1 (Plasmodium falciparum, UniProt Q8IIJ9) (assay: primary screen, percent inhibition; read by cleavage of a fluorogenic dipeptide substrate; higher = more effect of the substance).
DPAP1, sequence (Q8IIJ9 whole entry, looked up): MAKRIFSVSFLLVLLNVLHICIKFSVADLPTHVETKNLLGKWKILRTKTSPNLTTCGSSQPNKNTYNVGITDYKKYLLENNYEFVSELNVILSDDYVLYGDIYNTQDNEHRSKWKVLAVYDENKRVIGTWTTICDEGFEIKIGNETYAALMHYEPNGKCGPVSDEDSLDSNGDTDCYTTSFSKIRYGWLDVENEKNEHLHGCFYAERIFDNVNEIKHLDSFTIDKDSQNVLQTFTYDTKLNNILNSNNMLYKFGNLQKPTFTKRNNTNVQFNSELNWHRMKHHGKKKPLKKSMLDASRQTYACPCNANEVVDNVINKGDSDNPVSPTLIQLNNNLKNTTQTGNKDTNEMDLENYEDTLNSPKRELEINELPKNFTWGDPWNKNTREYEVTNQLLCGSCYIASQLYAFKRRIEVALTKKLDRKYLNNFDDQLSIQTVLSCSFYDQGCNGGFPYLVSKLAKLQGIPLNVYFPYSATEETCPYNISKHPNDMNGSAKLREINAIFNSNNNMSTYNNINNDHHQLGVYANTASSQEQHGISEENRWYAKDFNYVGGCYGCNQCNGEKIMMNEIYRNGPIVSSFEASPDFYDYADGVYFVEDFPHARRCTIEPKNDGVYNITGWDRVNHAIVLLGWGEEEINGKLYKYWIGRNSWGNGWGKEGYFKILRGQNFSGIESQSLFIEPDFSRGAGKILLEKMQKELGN
Set-up: species or system P. falciparum D10 trophozoite lysates; single well
`COCCn1c(=N)c(S(=O)(=O)c2ccc(C)cc2)cc2c(=O)n3ccccc3nc21` was tested, and the “% Inhibition @ 10 uM” value was -0.994%. With `Cc1ccc(C2Nc3cc(C)c(C)cc3N=C3CC(C)(C)CC(O)=C32)o1` (stereo not shown) the “% Inhibition @ 10 uM” value was -0.968%. With `CN(C)CCN(Cc1cccs1)S(=O)(=O)c1ccc(-c2cc(C(F)(F)F)no2)s1` the “% Inhibition @ 10 uM” value was 2.58%. For `COc1ccc(Cl)cc1N(Cc1ccccc1)Cc1ccccc1`, the “% Inhibition @ 10 uM” value was -2.19%. In the case of `Cc1nn(CC(=O)N2CCN(Cc3ccccc3)CC2)c(=O)c2cc3sccc3n12`, the “% Inhibition @ 10 uM” value is reported as 1.8%. `O=C1CC(N2CCN(c3ccc(F)cc3)CC2)C(=O)N1c1ccc(F)cc1` (stereo not shown) was tested, and the “% Inhibition @ 10 uM” value was 0.912%. `O=C(O)C1CCCCC1C(=O)N1CCN(c2ccccc2)CC1` (stereo not shown) was tested, and the “% Inhibition @ 10 uM” value was 3.93%. For `O=C(c1c[nH]c2c1ccc1ccccc12)C(F)(F)F`, the “% Inhibition @ 10 uM” value was 1.66%. `O=C(Cn1ccc2cc(S(=O)(=O)N3CCCCC3)ccc21)N1CCOCC1` was tested, and the “% Inhibition @ 10 uM” value was -0.899%. For `O=C(CCn1c(=O)c2sccc2n(CC(=O)NCc2ccco2)c1=O)NCc1ccccc1`, the “% Inhibition @ 10 uM” value was -5.09%. For `CCC(C(=O)NCCCc1ccccc1)n1nc(C)n2c(cc3sccc32)c1=O` (stereo not shown), the “% Inhibition @ 10 uM” value was 3.4%. With `CCc1nc2sc3c(c2c(=O)o1)CCCCC3` the “% Inhibition @ 10 uM” value was -11%. With `CCCC(=O)Nc1ccccc1NC(=O)COc1ccc(Br)cc1Cl` the “% Inhibition @ 10 uM” value was -3.49%. For `O=C(c1ccccc1)c1ccc(NC(=O)C(F)(F)F)cc1`, the “% Inhibition @ 10 uM” value was -5.46%. For `O=C(NCc1ccco1)c1ccc2c(O)c(S(=O)(=O)c3ccccc3)c(O)nc2c1`, the “% Inhibition @ 10 uM” value was 8.23%. With `CSc1ccc(/C=C(\C#N)c2nn(-c3ccccc3)c(N)c2C#N)cc1` the “% Inhibition @ 10 uM” value was 4.1%. For `CC(=O)Nc1ccc(-c2nc3c(Cl)cc(Cl)cc3[nH]2)cc1`, the “% Inhibition @ 10 uM” value was -3.12%. In the case of `Cc1c(Cl)cccc1N(CC(=O)NCc1cccnc1)S(=O)(=O)c1ccccc1`, the “% Inhibition @ 10 uM” value is reported as -3.5%. With `CCc1ccc(CNC(=O)C2CCCN(S(C)(=O)=O)C2)cc1` (stereo not shown) the “% Inhibition @ 10 uM” value was 6.86%. For `CC(C)C[C@H](NC(=O)c1ccc(N2CCOCC2)cc1)C(=O)NCCN(CC(C)C)CC(C)C`, the “% Inhibition @ 10 uM” value was 0.173%. With `CCOC(=O)N1CCN(c2c(NC3CCCCCC3)c(=O)c2=O)CC1` the “% Inhibition @ 10 uM” value was 3.54%. `O=C(Cc1ccc(-c2ccccc2)cc1)Nc1ccc(F)cc1` was tested, and the “% Inhibition @ 10 uM” value was 0.634%. `CCC(=O)Nc1ccc2nc(SCC(=O)N3CCN(c4ccccc4)CC3)sc2c1` was tested, and the “% Inhibition @ 10 uM” value was -0.759%. For `O=C(O)COc1cccc(-c2nc3ccccc3s2)c1`, the “% Inhibition @ 10 uM” value was -10.6%. In the case of `CC(=O)c1c(C)oc2ccc(NS(=O)(=O)c3ccc4c5c(cccc35)C(=O)N4)cc12`, the “% Inhibition @ 10 uM” value is reported as 19%. In the case of `Cc1ccc2nc3c(cc(C(=O)NCC4CCCO4)c(=N)n3C3CCCCC3)c(=O)n2c1` (stereo not shown), the “% Inhibition @ 10 uM” value is reported as 3.6%. In the case of `Cc1nn(CC(=O)N2CCCCC2)c2ccccc12`, the “% Inhibition @ 10 uM” value is reported as -4.71%. `Cc1cc(C)cc(Oc2nc3ccccn3c(=O)c2/C=C(\C#N)C(=O)NCCc2ccccc2)c1` was tested, and the “% Inhibition @ 10 uM” value was -5.1%. With `COc1ccccc1-c1cc(/N=C(/NCC2CCCO2)SC)[nH]n1` (stereo not shown) the “% Inhibition @ 10 uM” value was -5.92%. For `O=C(Nc1ccc(N2C(=O)CCC2=O)cc1)c1ccccc1`, the “% Inhibition @ 10 uM” value was 2.63%. `Cc1ccccc1-c1c(C)oc2c(CN(C)C)c(O)ccc2c1=O` was tested, and the “% Inhibition @ 10 uM” value was -18.8%. `O=C(O)CCC(=O)N1N=C(c2ccc(Br)cc2)CC1c1cccs1` (stereo not shown) was tested, and the “% Inhibition @ 10 uM” value was -0.413%. In the case of `COc1cc2c(cc1OC)C(c1cccc(Cl)c1)N(C1CCSC1)CC2` (stereo not shown), the “% Inhibition @ 10 uM” value is reported as -0.13%. In the case of `COc1ccc(OCCNC(=O)c2ccc3snnc3c2)cc1`, the “% Inhibition @ 10 uM” value is reported as -5.36%. With `CCN(CC)C(=O)c1sc(NC(=O)c2cccc(C)c2)c(C#N)c1C` the “% Inhibition @ 10 uM” value was -0.864%. For `Cc1noc(/C=C/c2ccco2)c1S(=O)(=O)N1CCC(C(=O)NCCN2CCCCCC2)CC1`, the “% Inhibition @ 10 uM” value was 0.458%. In the case of `Cc1ccc(CNC(=O)CCCn2sc3ccccc3c2=O)cc1`, the “% Inhibition @ 10 uM” value is reported as -1.06%. In the case of `COc1ccc(C2=N/C(=C\c3ccc(OC)c(OC)c3OC)C(=O)O2)cc1`, the “% Inhibition @ 10 uM” value is reported as 5.79%. With `Cc1cccc(N2CCN(C(=O)c3cccc([N+](=O)[O-])c3C)CC2)c1C` the “% Inhibition @ 10 uM” value was -5.62%. For `N#Cc1nc(-c2ccc(F)cc2)oc1N1CCN(Cc2ccccc2)CC1`, the “% Inhibition @ 10 uM” value was 0.101%. `CCOC(=O)c1[nH]c2ccccc2c1NC(=O)c1ccccc1Cl` was tested, and the “% Inhibition @ 10 uM” value was -3.48%. For `Cc1cc(C)nc(NC(=O)NS(=O)(=O)Nc2ccc(Br)cn2)n1`, the “% Inhibition @ 10 uM” value was 0.716%. For `Cc1ccc(C)c(Cn2cnc3ccccc32)c1`, the “% Inhibition @ 10 uM” value was -0.99%. `CC1=CC(C)C(C(=O)O)C(C(=O)O)C1` (stereo not shown) was tested, and the “% Inhibition @ 10 uM” value was -4.18%. With `Fc1ccc(N2CCN(Cc3cccc(Cl)c3Cl)CC2)cc1` the “% Inhibition @ 10 uM” value was -9.48%. For `Cc1ccc2ccc(S(=O)(=O)N3CCOCC3)cc2c1`, the “% Inhibition @ 10 uM” value was -2%. For `CC(NC(=O)CCCn1sc2ccccc2c1=O)c1ccccc1` (stereo not shown), the “% Inhibition @ 10 uM” value was -2.84%. With `CCC1CCCCN1CCCNC(=O)Cn1ncc2c(C)n(Cc3ccccc3)c(C)c2c1=O` (stereo not shown) the “% Inhibition @ 10 uM” value was 2.84%. For `CSc1cc(-c2ccco2)oc1C(=O)c1ccco1`, the “% Inhibition @ 10 uM” value was -3.33%. In the case of `Cc1nc2sccn2c1-c1csc(Nc2ccc(O)cc2)n1`, the “% Inhibition @ 10 uM” value is reported as -2.48%. With `Cc1cc(-c2[nH]nc3c2C(c2cccc(C(F)(F)F)c2)C(C#N)=C(N)O3)c(C)s1` (stereo not shown) the “% Inhibition @ 10 uM” value was -6.59%. In the case of `CC1CCN(C(=O)C23CCC(C)(C(=O)O2)C3(C)C)CC1` (stereo not shown), the “% Inhibition @ 10 uM” value is reported as -2.14%. With `Cc1ccc(Cl)cc1N/C=C(\C#N)C(=O)NC(=O)Cc1ccccc1` the “% Inhibition @ 10 uM” value was -4.75%. `Cc1ccc(C)n1-c1ccc(Oc2ccc(C#N)cc2)cc1` was tested, and the “% Inhibition @ 10 uM” value was 4.54%. With `Cc1ccc(CNC(=O)CCCN2C(=S)NC(C)(C)CC2C)cc1` (stereo not shown) the “% Inhibition @ 10 uM” value was 1.91%. For `CCCC(=O)Nc1ccc(-c2cn3cccc(C)c3n2)cc1`, the “% Inhibition @ 10 uM” value was -1.89%. With `CC1=NN(c2ccccc2)C(=O)/C1=C1/C(=O)Nc2ccccc21` the “% Inhibition @ 10 uM” value was -2.76%. In the case of `Cc1ccc(CNC(=O)COc2ccc(S(=O)(=O)NC3CCCC3)cc2)cc1`, the “% Inhibition @ 10 uM” value is reported as -1.61%. `CC1CCN(S(=O)(=O)c2ccc3c(ccn3CCC(=O)N3CC(C)CC(C)C3)c2)CC1` (stereo not shown) was tested, and the “% Inhibition @ 10 uM” value was 3.45%. In the case of `O=C(Nc1cccc(C(F)(F)F)c1)C1CC(=O)N(c2ccc(Br)cc2)C1` (stereo not shown), the “% Inhibition @ 10 uM” value is reported as 1.71%. In the case of `CCCC[C@H](NC(=O)[C@H](CCC)N[C@@H](c1ccc(-c2ccc(S(N)(=O)=O)cc2)cc1)C(F)(F)F)C(=O)c1nnc(-c2ccco2)o1`, the “% Inhibition @ 10 uM” value is reported as -4.72%.

From publication PMC6919601, “Identification of Plasmodium dipeptidyl aminopeptidase allosteric inhibitors by high throughput screening” (PLoS ONE, 2019)
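Also: 30 min substrate incubation versus DMSO and 10 µM JCP410 controls.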
